Test results as given in US20260146062A1, “COMPOUNDS AND METHODS FOR TREATING DISEASES CAUSED BY VIRUSES AND BACTERIA” (The Trustees of Indiana University, priority 2022, published 2026).

Molecular target: SARS-CoV-2 main protease (3CL) enzyme (Mpro) (Severe acute respiratory syndrome coronavirus 2, UniProt P0DTD1)
Experiment: Mpro Inhibition Screening Assay (3CL Fluorogenic Assay Kit, FRET substrate)
Conditions: 1 μM, single dose

| Molecule | % Inhibition of Mpro @ 1 μM (Single dose) [%] |
| --- | --- |
| (1R,2S,5S)—N—((S)-1-cyano-2-((S)-2-oxopyrrolidin-3-yl)ethyl)-3-(3-(3,5-difluorophenyl)propanoyl)-6,6-dimethyl-3-azabicyclo[3.1.0]hexane-2-carboxamide [Compound 44] | 10 |

Same assay, conditions: read-out: % Inhibition of Mpro @ 1 μM (Single dose)

| Molecule | inhibition at 1 µM [%] |
| --- | --- |
| COc1cccc2[nH]c(C(=O)N[C@@H](CC(C)C)C(=O)N[C@@H](C[C@@H]3CCNC3=O)C(N)=O)cc12 [Compound 53] | 0 |
| CC(C)C[C@H](NC(=O)CCc1cc(F)cc(F)c1)C(=O)N[C@H](C#N)C[C@@H]1CCNC1=O [Compound 46, (S)—N—((S)-1-cyano-2-((S)-2-oxopyrrolidin-3-yl)ethyl)-2-(3-(3,5-difluorophenyl)propanamido)-4-methyl-pentanamide] | 21 |
| N#C[C@H](C[C@@H]1CCNC1=O)NC(=O)[C@H](Cc1cccc(F)c1)NC(=O)CCc1cc(F)cc(F)c1 [Compound 47] | < 1 |
| CC(C)C[C@H](NC(=O)[C@@H](NC(=O)C(F)(F)F)C(C)(C)C)C(=O)N[C@H](C#N)C[C@@H]1CCNC1=O [Compound 128] | 71 |
| COc1cccc2[nH]c(C(=O)N[C@@H](Cc3cccc(F)c3)C(=O)N[C@H](C#N)C[C@@H]3CCNC3=O)cc12 [Compound 32, N—((S)-1-(((S)-1-cyano-2-((S)-2-oxopyrrolidin-3-yl)ethyl)amino)-3-(3-fluorophenyl)-1-oxopropan-2-yl)-4-methoxy-1H-indole-2-carboxamide] | 8 |
| N#C[C@H](C[C@@H]1CCNC1=O)NC(=O)[C@H](CC1CCCCC1)NC(=O)CCc1cc(F)cc(F)c1 [Compound 43] | 20 |
| CC(C)(C)OC(=O)N[C@H](C(=O)N[C@@H](CC1CC1)C(=O)N[C@H](C#N)C[C@@H]1CCNC1=O)C(C)(C)C [Compound 35, tert-Butyl ((S)-1-(((S)-1-(((S)-1-cyano-2-((S)-2-oxopyrrolidin-3-yl)ethyl)amino)-3-cyclopropyl-1-oxopropan-2-yl)amino)-3,3-dimethyl-1-oxobutan-2-yl)carbamate] | 22 |

Same assay, conditions: read-out: % Inhibition of Mpro @ 100 μM (Single dose)

| Molecule | inhibition at 100 µM [%] |
| --- | --- |
| COc1cccc2[nH]c(C(=O)N3CC(F)(F)C[C@H]3C(=O)N[C@H](C#N)C[C@@H]3CCNC3=O)cc12 [Compound 83, (S)—N—((S)-1-cyano-2-((S)-2-oxopyrrolidin-3-yl)ethyl)-4,4-difluoro-1-(4-methoxy-1H-indole-2-carbonyl)pyrrolidine-2-carboxamide] | 64 |
| COc1cccc2[nH]c(C(=O)N[C@@H](CC(C)C)C(=O)N[C@@H](C[C@@H]3CCNC3=O)C(N)=O)cc12 [Compound 53] | 35 |
| CC(C)C[C@H](NC(=O)COc1ccc(F)cc1)C(=O)N[C@H](C#N)C[C@@H]1CCNC1=O [Compound 51, (S)—N—((S)-1-cyano-2-((S)-2-oxopyrrolidin-3-yl)ethyl)-2-(2-(4-fluorophenoxy)acetamido)-4-methylpentanamide] | 0 |
| CC(C)C[C@H](NC(=O)c1cc2ccccc2[nH]1)C(=O)NC(C=O)Cc1ccc(F)cc1 (some centres unmarked) [Compound 125] | 24 |
| COc1cccc2[nH]c(C(=O)N[C@@H](CC(C)C)C(=O)N[C@H](C#N)C[C@@H]3CCNC3=O)cc12 [Compound 27] | 33 |
| COc1cccc2[nH]c(C(=O)N3[C@@H]4CC[C@@H](C4)[C@H]3C(=O)N[C@H](C#N)C[C@@H]3CCNC3=O)cc12 [Compound 84, (3S)—N—((S)-1-cyano-2-((S)-2-oxopyrrolidin-3-yl)ethyl)-2-(4-methoxy-1H-indole-2-carbonyl)-2-azabicyclo[2.2.1]heptane-3-carboxamide] | 54 |
| CC(C)C[C@H](NC(=O)c1cc2ccccc2[nH]1)C(=O)N[C@H](C#N)C[C@@H]1CCNC1=O [Compound 124] | 79 |
| COc1cccc2[nH]c(C(=O)N[C@@H](Cc3cccc(F)c3)C(=O)N[C@H](C#N)C[C@@H]3CCNC3=O)cc12 [Compound 32, N—((S)-1-(((S)-1-cyano-2-((S)-2-oxopyrrolidin-3-yl)ethyl)amino)-3-(3-fluorophenyl)-1-oxopropan-2-yl)-4-methoxy-1H-indole-2-carboxamide] | 0 |
| COc1cccc2[nH]c(C(=O)N[C@H](C(=O)N[C@H](C#N)C[C@@H]3CCNC3=O)C(C)(C)C)cc12 [Compound 123] | 7 |
